Measurements taken from ChEMBL document CHEMBL5303300, “EUbOPEN Chemogenomics Library - Multiplex” (2023).
Certain results were filed several times, with different values. The other results are left out here. The source may hold further records. Results that share an entry are repeated measurements in other runs, samples, wells, individuals or studies.

How the values were obtained:
Fibroblast = test: Multiplex assay against human fibroblast; format: toxicity, cell-based; conditions: number of replicates 2
How it was run: (§1)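 With compound added, live cells were imaged on a CQ1 microscope at 37°C and 5% CO2; staining with Hoechst33342, BioTracker Green Microtubule Cytoskeleton Dye, MitoTracker Red and Annexin V Alexa Fluor 680 had been done at seeding. The CellPathfinder machine-learning gating scheme split cells into Hoechst high-intensity objects or normal cells, normal cells into healthy, pyknosed or fragmented nuclei, and pyknosed cells into mitotic or apoptotic. The tubulin, mitochondrial-mass and membrane-permeability phenotypes are per cents of healthy-nucleus cells.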

U2OS = test: Multiplex assay against U2OS; format: toxicity, cell-based; conditions: human, number of replicates 2; how it was run: as §1
[1] = 12 h, 10 µM, compound concentration 10 uM
[2] = 24 h, 10 µM, compound concentration 10 uM
[3] = 12 h, 1 µM, compound concentration 1 uM
[4] = 24 h, 1 µM, compound concentration 1 uM
[5] = 48 h, 1 µM, compound concentration 1 uM
[6] = 48 h, 10 µM, compound concentration 10 uM

Row | SMILES | Population Tubulin-Different-Phenotype (%) (Fibroblast; [2]) | Total Cell Count (U2OS; [3]) | Total Cell Count (U2OS; [1]) | Total Cell Count (U2OS; [4]) | Population Fragmented Nuclei (%) (U2OS; [2]) | Total Cell Count (U2OS; [2]) | Total Cell Count (U2OS; [5]) | Total Cell Count (U2OS; [6]) | Population Fragmented Nuclei (%) (U2OS; [3]) | Population Fragmented Nuclei (%) (U2OS; [1]) | Population Pyknosed Nuclei (%) (U2OS; [6]) | Population Mitotic Cells (%) (U2OS; [3]) | Population Fragmented Nuclei (%) (U2OS; [4]) | Population Fragmented Nuclei (%) (U2OS; [5]) | Population Fragmented Nuclei (%) (U2OS; [6]) | further results
1 | CN(C)CCN(Cc1ccc(-c2ccc(CNCCc3ccccc3)cc2)cc1)C(=O)CCC1CCCC1.Cl.Cl | 0% and 100% | 34 and 203 | 26 and 141 | 252 and 43 | 19% and 5% | 26 and 138 | 50 and 357 | 24 and 129 | – | – | – | – | – | – | – | Population Membrane Permeable-Phenotype (%) (Fibroblast; [1]): 50% and 0%; Population Mitochondria Different-Phenotype (%) (Fibroblast; [1]): 33% and 100%; Population Mitochondria Different-Phenotype (%) (Fibroblast; [2]): 0% and 33%; Population Membrane Permeable-Phenotype (%) (U2OS; [5]): 29% and 8%; Population Mitochondria Different-Phenotype (%) (U2OS; [5]): 47% and 13%; Population Healthy Nuclei (%) (U2OS; [6]): 25% and 5%
2 | COc1cc(OC)cc(C(=O)NNC(=O)Nc2cccc3ccccc23)c1 | 15% and 3% | 20 and 238 | 186 and 56 | 317 and 24 | – | 247 and 63 | 608 and 49 | 91 and 485 | 20% and 2% | 4% and 16% | 25% and 6% | – | – | – | – | Population Fragmented Nuclei (%) (Fibroblast; [4]): 4% and 16%; Population Apoptotic (%) (U2OS; [1]): 42% and 9%; Population Mitotic Cells (%) (U2OS; [4]): 48% and 0%
3 | N=C(N)NCCC[C@H](NC(=O)COCC(c1ccccc1)c1ccccc1)C(=O)O.O=C(O)C(F)(F)F | – | 30 and 207 | 30 and 199 | 27 and 290 | – | 38 and 293 | 41 and 664 | 65 and 606 | 46% and 2% | – | 21% and 4% | 0% and 55% | 25% and 1% | 21% and 3% | – | Population Mitotic Cells (%) (Fibroblast; [6]): 38% and 5%; Population Pyknosed Nuclei (%) (U2OS; [1]): 26% and 8%
4 | Br.Cc1cccc(C2CN(C)CCc3c2cc(O)c(O)c3Cl)c1 (stereo not drawn) | – | 47 and 275 | 221 and 21 | 375 and 45 | 2% and 25% | 294 and 16 | 59 and 789 | 30 and 429 | 27% and 5% | – | – | – | 2% and 13% | 15% and 3% | 13% and 1% | Population Mitotic Cells (%) (Fibroblast; [6]): 55% and 0%; Population Apoptotic (%) (U2OS; [1]): 58% and 0%
5 | CN1CCc2cc(Cl)c(O)cc2[C@@H](c2ccccc2)C1.Cl | – | 24 and 249 | 57 and 282 | 44 and 333 | – | 80 and 372 | 62 and 675 | 125 and 761 | 29% and 6% | – | – | 0% and 63% | 27% and 5% | – | – | Population Pyknosed Nuclei (%) (Fibroblast; [1]): 16% and 4%; Population Pyknosed Nuclei (%) (U2OS; [5]): 18% and 4%
6 | CCCNc1ccc2ncc(-c3ccncc3)n2n1 | – | 29 and 241 | 45 and 153 | 42 and 328 | 42% and 13% | 45 and 161 | 60 and 620 | 55 and 166 | 24% and 3% | 40% and 9% | – | – | 21% and 2% | 16% and 4% | 47% and 11% | Population Tubulin-Different-Phenotype (%) (Fibroblast; [5]): 27% and 8%; Population Membrane Permeable-Phenotype (%) (U2OS; [6]): 38% and 11%
7 | COc1cc(C(=O)NC2CCN(C)CC2)ccc1Nc1ncc(C(F)(F)F)c(NCc2ccc(C)cc2N(C)S(C)(=O)=O)n1.O=CO.O=CO | – | 64 and 272 | 52 and 213 | 66 and 354 | 50% and 13% | 60 and 209 | 91 and 453 | 55 and 207 | – | 27% and 7% | – | – | – | – | 45% and 14% | Population Membrane Permeable-Phenotype (%) (Fibroblast; [2]): 23% and 3%; Population Mitochondria Different-Phenotype (%) (U2OS; [3]): 3% and 24%
8 | Cc1cccc(S(=O)(=O)N(C)[C@H](C)CCN2CCC(C)CC2)c1.Cl | 28% and 8% | 218 and 34 | 13 and 230 | 292 and 39 | 22% and 1% | 22 and 338 | 575 and 79 | 652 and 29 | – | 15% and 2% | 5% and 27% | 27% and 0% | – | – | 2% and 20% | Population Tubulin-Different-Phenotype (%) (Fibroblast; [5]): 14% and 2%; Population Tubulin-Different-Phenotype (%) (Fibroblast; [6]): 18% and 5%; Population Tubulin-Different-Phenotype (%) (U2OS; [3]): 79% and 25%; Population Pyknosed Nuclei (%) (U2OS; [1]): 30% and 7%; Population Tubulin-Different-Phenotype (%) (U2OS; [4]): 78% and 25%; Population Pyknosed Nuclei (%) (U2OS; [2]): 22% and 6%; Population Membrane Permeable-Phenotype (%) (U2OS; [6]): 2% and 13%
